Assay results: publication PMC8473724
Results are given in words; binding and its absence hold for the method and conditions named. Binding seen in cells or lysates may run through a third protein. Some binding calls cover weakened binding; strength is not graded here. Where a sequence is shown, tags or fusion partners need not be part of it.

Assays:
[1] = biological target: T1, FLAG-PTP1B D181A-Y46F Δ406-435 (truncated trapping mutant without the ER-targeting domain) (UniProt P18031); experiment: co-IP; anti-FLAG M2 magnetic beads, lysates of PTP1B KO Ramos cells with inducible FLAG-PTP1B WT or trapping mutants; lysis buffer 50 mM Tris-HCl pH 8.5, 137.5 mM NaCl, 1 mM EDTA, 1% Triton X-100; 2-4 h at 8°C; immunoblot of endogenous partners; no orthovanadate
T1 sequence: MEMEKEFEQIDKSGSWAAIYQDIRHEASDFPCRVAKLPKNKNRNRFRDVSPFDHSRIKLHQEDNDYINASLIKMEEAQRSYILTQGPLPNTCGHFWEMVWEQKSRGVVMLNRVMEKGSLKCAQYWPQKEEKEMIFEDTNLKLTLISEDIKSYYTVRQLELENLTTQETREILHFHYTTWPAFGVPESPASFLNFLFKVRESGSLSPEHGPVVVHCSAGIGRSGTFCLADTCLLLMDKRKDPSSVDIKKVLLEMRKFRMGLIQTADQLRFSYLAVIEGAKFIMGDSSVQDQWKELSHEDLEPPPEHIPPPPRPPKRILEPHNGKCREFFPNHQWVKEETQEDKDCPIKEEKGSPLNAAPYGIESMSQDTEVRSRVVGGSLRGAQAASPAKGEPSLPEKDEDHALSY

[2] = biological target: T2, FLAG-PTP1B D181A-Y46F substrate trapping mutant (full-length) (UniProt P18031); experiment: as above
T2 sequence: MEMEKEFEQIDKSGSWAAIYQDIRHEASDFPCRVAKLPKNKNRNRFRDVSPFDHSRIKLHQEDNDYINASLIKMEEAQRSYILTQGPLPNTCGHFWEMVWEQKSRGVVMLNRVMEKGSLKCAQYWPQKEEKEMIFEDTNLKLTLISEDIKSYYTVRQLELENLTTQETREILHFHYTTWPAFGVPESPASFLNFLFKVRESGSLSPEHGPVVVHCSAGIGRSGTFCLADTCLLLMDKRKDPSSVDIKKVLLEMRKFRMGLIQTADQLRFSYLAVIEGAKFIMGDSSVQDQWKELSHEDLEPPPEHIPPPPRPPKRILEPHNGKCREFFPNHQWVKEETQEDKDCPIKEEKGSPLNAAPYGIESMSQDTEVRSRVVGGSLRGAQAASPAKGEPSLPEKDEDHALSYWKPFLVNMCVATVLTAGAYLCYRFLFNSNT

[3] = biological target: T2, FLAG-PTP1B D181A-Y46F substrate trapping mutant (full-length); experiment: condition: only with 1 mM orthovanadate in the lysis buffer; co-IP; as the anti-FLAG co-IP, but cells lysed in the presence of 1 mM orthovanadate, which competes for binding at the catalytic centre; immunoblot
[4] = biological target: T3, FLAG-PTP1B WT (protein tyrosine phosphatase 1B) (UniProt P18031); experiment: co-IP; anti-FLAG M2 magnetic beads, lysates of PTP1B KO Ramos cells with inducible FLAG-PTP1B WT or trapping mutants; lysis buffer 50 mM Tris-HCl pH 8.5, 137.5 mM NaCl, 1 mM EDTA, 1% Triton X-100; 2-4 h at 8°C; immunoblot of endogenous partners; no orthovanadate
T3 sequence: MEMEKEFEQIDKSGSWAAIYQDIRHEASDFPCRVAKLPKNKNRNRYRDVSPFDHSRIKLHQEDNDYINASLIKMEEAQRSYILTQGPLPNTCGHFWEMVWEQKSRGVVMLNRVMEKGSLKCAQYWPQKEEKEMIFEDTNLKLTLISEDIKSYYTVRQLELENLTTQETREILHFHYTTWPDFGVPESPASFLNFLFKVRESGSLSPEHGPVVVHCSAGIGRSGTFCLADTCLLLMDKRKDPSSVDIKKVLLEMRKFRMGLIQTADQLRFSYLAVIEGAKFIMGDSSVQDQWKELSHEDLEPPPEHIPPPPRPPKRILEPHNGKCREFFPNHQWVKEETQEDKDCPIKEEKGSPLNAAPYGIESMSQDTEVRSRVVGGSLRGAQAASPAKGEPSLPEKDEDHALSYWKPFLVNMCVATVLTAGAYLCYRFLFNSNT

[5] = biological target: T2, FLAG-PTP1B D181A-Y46F substrate trapping mutant (full-length); experiment: co-IP; as the anti-FLAG co-IP, but cells lysed in the presence of 1 mM orthovanadate, which competes for binding at the catalytic centre; immunoblot

B1: PLCγ1 (enzyme, UniProt P19174 1-1290)
chain: MAGAASPCANGCGPGAPSDAEVLHLCRSLEVGTVMTLFYSKKSQRPERKTFQVKLETRQITWSRGADKIEGAIDIREIKEIRPGKTSRDFDRYQEDPAFRPDQSHCFVILYGMEFRLKTLSLQATSEDEVNMWIKGLTWLMEDTLQAPTPLQIERWLRKQFYSVDRNREDRISAKDLKNMLSQVNYRVPNMRFLRERLTDLEQRSGDITYGQFAQLYRSLMYSAQKTMDLPFLEASTLRAGERPELCRVSLPEFQQFLLDYQGELWAVDRLQVQEFMLSFLRDPLREIEEPYFFLDEFVTFLFSKENSVWNSQLDAVCPDTMNNPLSHYWISSSHNTYLTGDQFSSESSLEAYARCLRMGCRCIELDCWDGPDGMPVIYHGHTLTTKIKFSDVLHTIKEHAFVASEYPVILSIEDHCSIAQQRNMAQYFKKVLGDTLLTKPVEISADGLPSPNQLKRKILIKHKKLAEGSAYEEVPTSMMYSENDISNSIKNGILYLEDPVNHEWYPHYFVLTSSKIYYSEETSSDQGNEDEEEPKEVSSSTELHSNEKWFHGKLGAGRDGRHIAERLLTEYCIETGAPDGSFLVRESETFVGDYTLSFWRNGKVQHCRIHSRQDAGTPKFFLTDNLVFDSLYDLITHYQQVPLRCNEFEMRLSEPVPQTNAHESKEWYHASLTRAQAEHMLMRVPRDGAFLVRKRNEPNSYAISFRAEGKIKHCRVQQEGQTVMLGNSEFDSLVDLISYYEKHPLYRKMKLRYPINEEALEKIGTAEPDYGALYEGRNPGFYVEANPMPTFKCAVKALFDYKAQREDELTFIKSAIIQNVEKQEGGWWRGDYGGKKQLWFPSNYVEEMVNPVALEPEREHLDENSPLGDLLRGVLDVPACQIAIRPEGKNNRLFVFSISMASVAHWSLDVAADSQEELQDWVKKIREVAQTADARLTEGKIMERRKKIALELSELVVYCRPVPFDEEKIGTERACYRDMSSFPETKAEKYVNKAKGKKFLQYNRLQLSRIYPKGQRLDSSNYDPLPMWICGSQLVALNFQTPDKPMQMNQALFMTGRHCGYVLQPSTMRDEAFDPFDKSSLRGLEPCAISIEVLGARHLPKNGRGIVCPFVEIEVAGAEYDSTKQKTEFVVDNGLNPVWPAKPFHFQISNPEFAFLRFVVYEEDMFSDQNFLAQATFPVKGLKTGYRAVPLKNNYSEDLELASLLIKIDIFPAKENGDLSPFSGTSLRERGSDASGQLFHGRAREGSFESRYQQPFEDFRISQEHLADHFDSRERRAPRRTRVNGDNRL
Q: With B1 as the binder, how does the binding [1] read?
A: binds

Q: And the binding [2]?
A: binds

Q: What about the binding [3] of the same binder?
A: no binding

B2: PLCγ2 (enzyme, UniProt P16885 1-1265)
chain: MSTTVNVDSLAEYEKSQIKRALELGTVMTVFSFRKSTPERRTVQVIMETRQVAWSKTADKIEGFLDIMEIKEIRPGKNSKDFERAKAVRQKEDCCFTILYGTQFVLSTLSLAADSKEDAVNWLSGLKILHQEAMNASTPTIIESWLRKQIYSVDQTRRNSISLRELKTILPLINFKVSSAKFLKDKFVEIGAHKDELSFEQFHLFYKKLMFEQQKSILDEFKKDSSVFILGNTDRPDASAVYLHDFQRFLIHEQQEHWAQDLNKVRERMTKFIDDTMRETAEPFLFVDEFLTYLFSRENSIWDEKYDAVDMQDMNNPLSHYWISSSHNTYLTGDQLRSESSPEAYIRCLRMGCRCIELDCWDGPDGKPVIYHGWTRTTKIKFDDVVQAIKDHAFVTSSFPVILSIEEHCSVEQQRHMAKAFKEVFGDLLLTKPTEASADQLPSPSQLREKIIIKHKKLGPRGDVDVNMEDKKDEHKQQGELYMWDSIDQKWTRHYCAIADAKLSFSDDIEQTMEEEVPQDIPPTELHFGEKWFHKKVEKRTSAEKLLQEYCMETGGKDGTFLVRESETFPNDYTLSFWRSGRVQHCRIRSTMEGGTLKYYLTDNLTFSSIYALIQHYRETHLRCAEFELRLTDPVPNPNPHESKPWYYDSLSRGEAEDMLMRIPRDGAFLIRKREGSDSYAITFRARGKVKHCRINRDGRHFVLGTSAYFESLVELVSYYEKHSLYRKMRLRYPVTPELLERYNMERDINSLYDVSRMYVDPSEINPSMPQRTVKALYDYKAKRSDELSFCRGALIHNVSKEPGGWWKGDYGTRIQQYFPSNYVEDISTADFEELEKQIIEDNPLGSLCRGILDLNTYNVVKAPQGKNQKSFVFILEPKQQGDPPVEFATDRVEELFEWFQSIREITWKIDTKENNMKYWEKNQSIAIELSDLVVYCKPTSKTKDNLENPDFREIRSFVETKADSIIRQKPVDLLKYNQKGLTRVYPKGQRVDSSNYDPFRLWLCGSQMVALNFQTADKYMQMNHALFSLNGRTGYVLQPESMRTEKYDPMPPESQRKILMTLTVKVLGARHLPKLGRSIACPFVEVEICGAEYDNNKFKTTVVNDNGLSPIWAPTQEKVTFEIYDPNLAFLRFVVYEEDMFSDPNFLAHATYPIKAVKSGFRSVPLKNGYSEDIELASLLVFCEMRPVLESEEELYSSCRQLRRRQEELNNQLFLYDTHQNLRNANRDALVKEFSVNENQLQLYQEKCNKRLREKRVSNSKFYS
Q: B2 was tested. Which binding [1] did it give?
A: binds

Q: And the binding [2]?
A: binds

Q: And the binding [3]?
A: no binding

B3: B cell adapter for phosphoinositide 3-kinase (BCAP) (protein, UniProt Q6ZUJ8 1-805)
chain: MAASGVPRGCDILIVYSPDAEEWCQYLQTLFLSSRQVRSQKILTHRLGPEASFSAEDLSLFLSTRCVVVLLSAELVQHFHKPALLPLLQRAFHPPHRVVRLLCGVRDSEEFLDFFPDWAHWQELTCDDEPETYVAAVKKAISEDSGCDSVTDTEPEDEKVVSYSKQQNLPTVTSPGNLMVVQPDRIRCGAETTVYVIVRCKLDDRVATEAEFSPEDSPSVRMEAKVENEYTISVKAPNLSSGNVSLKIYSGDLVVCETVISYYTDMEEIGNLLSNAANPVEFMCQAFKIVPYNTETLDKLLTESLKNNIPASGLHLFGINQLEEEDMMTNQRDEELPTLLHFAAKYGLKNLTALLLTCPGALQAYSVANKHGHYPNTIAEKHGFRDLRQFIDEYVETVDMLKSHIKEELMHGEEADAVYESMAHLSTDLLMKCSLNPGCDEDLYESMAAFVPAATEDLYVEMLQASTSNPIPGDGFSRATKDSMIRKFLEGNSMGMTNLERDQCHLGQEEDVYHTVDDDEAFSVDLASRPPVPVPRPETTAPGAHQLPDNEPYIFKVFAEKSQERPGNFYVSSESIRKGPPVRPWRDRPQSSIYDPFAGMKTPGQRQLITLQEQVKLGIVNVDEAVLHFKEWQLNQKKRSESFRFQQENLKRLRDSITRRQREKQKSGKQTDLEITVPIRHSQHLPAKVEFGVYESGPRKSVIPPRTELRRGDWKTDSTSSTASSTSNRSSTRSLLSVSSGMEGDNEDNEVPEVTRSRSPGPPQVDGTPTMSLERPPRVPPRAASQRPPTRETFHPPPPVPPRGR
Q: B3 was tested. Which binding [2] did it give?
A: binds

Q: And the binding [3]?
A: no binding

B4: guanine nucleotide exchange factor VAV1 (protein, UniProt P15498 1-845)
chain: MELWRQCTHWLIQCRVLPPSHRVTWDGAQVCELAQALRDGVLLCQLLNNLLPHAINLREVNLRPQMSQFLCLKNIRTFLSTCCEKFGLKRSELFEAFDLFDVQDFGKVIYTLSALSWTPIAQNRGIMPFPTEEESVGDEDIYSGLSDQIDDTVEEDEDLYDCVENEEAEGDEIYEDLMRSEPVSMPPKMTEYDKRCCCLREIQQTEEKYTDTLGSIQQHFLKPLQRFLKPQDIEIIFINIEDLLRVHTHFLKEMKEALGTPGAANLYQVFIKYKERFLVYGRYCSQVESASKHLDRVAAAREDVQMKLEECSQRANNGRFTLRDLLMVPMQRVLKYHLLLQELVKHTQEAMEKENLRLALDAMRDLAQCVNEVKRDNETLRQITNFQLSIENLDQSLAHYGRPKIDGELKITSVERRSKMDRYAFLLDKALLICKRRGDSYDLKDFVNLHSFQVRDDSSGDRDNKKWSHMFLLIEDQGAQGYELFFKTRELKKKWMEQFEMAISNIYPENATANGHDFQMFSFEETTSCKACQMLLRGTFYQGYRCHRCRASAHKECLGRVPPCGRHGQDFPGTMKKDKLHRRAQDKKRNELGLPKMEVFQEYYGLPPPPGAIGPFLRLNPGDIVELTKAEAEQNWWEGRNTSTNEIGWFPCNRVKPYVHGPPQDLSVHLWYAGPMERAGAESILANRSDGTFLVRQRVKDAAEFAISIKYNVEVKHIKIMTAEGLYRITEKKAFRGLTELVEFYQQNSLKDCFKSLDTTLQFPFKEPEKRTISRPAVGSTKYFGTAKARYDFCARDRSELSLKEGDIIKILNKKGQQGWWRGEIYGRVGWFPANYVEEDYSEYC
Q: B4 was tested. Which binding [4] did it give?
A: binds

Q: And the binding [2]?
A: binds

Q: What about the binding [5] of the same binder?
A: binds
